Test results from patent US12479847B2 (DANA-FARBER CANCER INSTITUTE, INC., priority 2019, dated 2025).
pIC50: −log10 of the molar value.

molecular target: human LRRK2(G2019S) kinase (Homo sapiens, UniProt Q5S007, G2019S); experiment: biochemical
Description: Assay kits from Promega™ Corporation were used according to instructions and adapted as outlined herein. Test compounds were generally prepared with 1:3 serial dilutions for 12 concentrations (from 50 μM to 0.01 nM) ATP competition experiments. The kinase reaction was performed with kinase reaction buffer (40 mM Tris base pH 7.4, 20 mM MgCl2, 0.5 mM dithiothreitol), 0.1 mg/ml bovine serum albumin, distilled H2O). The reaction mixtures contained Pure ATP solution (10 μM), specific substrate (0.2 μg), and (human LRRK2 kinase (25 ng)) or (human LRRK2(G2019S) kinase (16 ng)), in a total assay volume of 5 μl after the manufacturer's protocol. In brief, the kinase reactions were started by addition of ATP to the kinase reaction mixture. The resulting mixture was incubated for 60 minutes at 25° C., and then stopped by adding 5 μl of ADP-Glo™ reagent. After incubation at room temperature in the dark for 40 minutes, 10 μl of kinase detection reagent was added per well, and the mixture was incubated for 10 minutes. Luminescence was measured using a Synergy™NEO2 plate reader (BioTek®) with an integration time of 1 second per well. Positive and negative controls were performed in 0.5% DMSO in the presence and absence of LRRK2 kinases. Curve fitting and data presentations were performed using GraphPad Prism version 5.0 (GraphPad Software, Inc.). The LRKK2 and LRRK2(G2019S) assay with inventive compounds 1-64 are summarized in the table below (Table 1), wherein: […]

COc1cc(S(=O)(=O)N2CCC(N3CCOCC3)CC2)ccc1Nc1nc(NC2CCC2)c2c(Cl)c[nH]c2n1 [Compound 28, 5-chloro-N4-cyclobutyl-N2-(2-methoxy-4-((4-morpholinopiperidin-1-yl)sulfonyl)phenyl)-7H-pyrrolo[2,3-d]pyrimidine-2,4-diamine] and COc1cc(S(=O)(=O)N2CCC(N3CCOCC3)CC2)ccc1Nc1nc(NC2CCCC2)c2c(Cl)c[nH]c2n1 [Compound 56, 5-chloro-N4-cyclopentyl-N2-(2-methoxy-4-((4-morpholinopiperidin-1-yl)sulfonyl)phenyl)-7H-pyrrolo[2,3-d]pyrimidine-2,4-diamine] fall in the same range of pIC50: 6.00 to 7.00 for the first, 6.00 to 7.00 for the second.

First: COc1cc(S(C)(=O)=O)ccc1Nc1nc(NC2CCC2)c2c(Cl)c[nH]c2n1 [Compound 29, 5-chloro-N4-cyclobutyl-N2-(2-methoxy-4-(methylsulfonyl)phenyl)-7H-pyrrolo[2,3-d]pyrimidine-2,4-diamine]
Second: COc1cc(S(C)(=O)=O)ccc1Nc1nc(NC2CCCC2)c2c(Cl)c[nH]c2n1 [Compound 57, 5-chloro-N4-cyclopentyl-N2-(2-methoxy-4-(methylsulfonyl)phenyl)-7H-pyrrolo[2,3-d]pyrimidine-2,4-diamine]
The pIC50 of the first is higher: 6.00 to 7.00 for the first, < 6.00 for the second. The first is the more potent here.

First: O=C(c1ccc(Nc2nc(NC3CCC3)c3c(Cl)c[nH]c3n2)c2c1OCCO2)N1CCOCC1 [Compound 30, (8-((5-chloro-4-(cyclobutylamino)-7H-pyrrolo[2,3-d]pyrimidin-2-yl)amino)-2,3-dihydrobenzo[b][1,4]dioxin-5-yl)(morpholino)methanone]
Second: O=C(c1ccc(Nc2nc(NCC3CC3)c3c(Cl)c[nH]c3n2)c2c1OCCO2)N1CCOCC1 [Compound 65, (8-((5-chloro-4-((cyclopropylmethyl)amino)-7H-pyrrolo[2,3-d]pyrimidin-2-yl)amino)-2,3-dihydrobenzo[b][1,4]dioxin-5-yl)(morpholino)methanone]
The pIC50 of the first is higher: > 8.00 for the first, 7.00 to 8.00 for the second.

COc1cc(S(=O)(=O)N2CCOCC2)ccc1Nc1nc(NCC(C)C)c2c(Cl)c[nH]c2n1 [Compound 31, 5-chloro-N4-isobutyl-N2-(2-methoxy-4-(morpholinosulfonyl)phenyl)-7H-pyrrolo[2,3-d]pyrimidine-2,4-diamine] and CC[C@@H](C)Nc1nc(Nc2ccc(S(=O)(=O)N3CCOCC3)cc2OC)nc2[nH]cc(Cl)c12 [Compound 47, (R)—N4-(sec-butyl)-5-chloro-N2-(2-methoxy-4-(morpholinosulfonyl)phenyl)-7H-pyrrolo[2,3-d]pyrimidine-2,4-diamine] fall in the same range of pIC50: 6.00 to 7.00 for the first, 6.00 to 7.00 for the second.

COc1cc(S(C)(=O)=O)ccc1Nc1nc(NCC(C)C)c2c(Cl)c[nH]c2n1 [Compound 32, 5-chloro-N4-isobutyl-N2-(2-methoxy-4-(methylsulfonyl)phenyl)-7H-pyrrolo[2,3-d]pyrimidine-2,4-diamine] and CC[C@@H](C)Nc1nc(Nc2ccc(S(C)(=O)=O)cc2OC)nc2[nH]cc(Cl)c12 [Compound 49, (R)—N4-(sec-butyl)-5-chloro-N2-(2-methoxy-4-(methylsulfonyl)phenyl)-7H-pyrrolo[2,3-d]pyrimidine-2,4-diamine] fall in the same range of pIC50: 6.00 to 7.00 for the first, 6.00 to 7.00 for the second.

COc1cc(S(=O)(=O)N2CCOCC2)ccc1Nc1nc(NCC2CCCC2)c2c(Cl)c[nH]c2n1 [Compound 45, 5-chloro-N4-(cyclopentylmethyl)-N2-(2-methoxy-4-(morpholinosulfonyl)phenyl)-7H-pyrrolo[2,3-d]pyrimidine-2,4-diamine] and COc1cc(S(=O)(=O)N2CCOCC2)ccc1Nc1nc(NC2CCCC2)c2c(Cl)c[nH]c2n1 [Compound 55, 5-chloro-N4-cyclopentyl-N2-(2-methoxy-4-(morpholinosulfonyl)phenyl)-7H-pyrrolo[2,3-d]pyrimidine-2,4-diamine] cannot be ordered by pIC50: < 6.00 for the first, < 6.00 for the second.

Compared with O=C(c1ccc(Nc2nc(NCC3CCCC3)c3c(Cl)c[nH]c3n2)c2c1OCCO2)N1CCOCC1 [Compound 46, (8-((5-chloro-4-((cyclopentylmethyl)amino)-7H-pyrrolo[2,3-d]pyrimidin-2-yl)amino)-2,3-dihydrobenzo[b][1,4]dioxin-5-yl)(morpholino)methanone], CC[C@@H](C)Nc1nc(Nc2ccc(C(=O)N3CCOCC3)c3c2OCCO3)nc2[nH]cc(Cl)c12 [Compound 50, (R)-(8-((4-(sec-butylamino)-5-chloro-7H-pyrrolo[2,3-d]pyrimidin-2-yl)amino)-2,3-dihydrobenzo[b][1,4]dioxin-5-yl)(morpholino)methanone] is higher in pIC50: 6.00 to 7.00 for the first, 7.00 to 8.00 for the second.

CC[C@@H](C)Nc1nc(Nc2ccc(S(=O)(=O)N3CCC(N4CCOCC4)CC3)cc2OC)nc2[nH]cc(Cl)c12 [Compound 48, (R)—N4-(sec-butyl)-5-chloro-N2-(2-methoxy-4-((4-morpholinopiperidin-1-yl)sulfonyl)phenyl)-7H-pyrrolo[2,3-d]pyrimidine-2,4-diamine] and CCCCNc1nc(Nc2ccc(S(=O)(=O)N3CCC(N4CCOCC4)CC3)cc2OC)nc2[nH]cc(Cl)c12 [Compound 72, N4-butyl-5-chloro-N2-(2-methoxy-4-((4-morpholinopiperidin-1-yl)sulfonyl)phenyl)-7H-pyrrolo[2,3-d]pyrimidine-2,4-diamine] fall in the same range of pIC50: 6.00 to 7.00 for the first, 6.00 to 7.00 for the second.

First: COc1cc(S(=O)(=O)N2CCOCC2)ccc1Nc1nc(NC2CCCCC2)c2c(Cl)c[nH]c2n1 [Compound 58, 5-chloro-N4-cyclohexyl-N2-(2-methoxy-4-(morpholinosulfonyl)phenyl)-7H-pyrrolo[2,3-d]pyrimidine-2,4-diamine]
Second: COc1cc(S(=O)(=O)N2CCOCC2)ccc1Nc1nc(NC2CCOCC2)c2c(Cl)c[nH]c2n1 [Compound 62, 5-chloro-N2-(2-methoxy-4-(morpholinosulfonyl)phenyl)-N4-(tetrahydro-2H-pyran-4-yl)-7H-pyrrolo[2,3-d]pyrimidine-2,4-diamine]
The pIC50 of the first is lower: < 6.00 for the first, 7.00 to 8.00 for the second.

First: COc1cc(S(C)(=O)=O)ccc1Nc1nc(NC2CCCCC2)c2c(Cl)c[nH]c2n1 [Compound 59, 5-chloro-N4-cyclohexyl-N2-(2-methoxy-4-(methylsulfonyl)phenyl)-7H-pyrrolo[2,3-d]pyrimidine-2,4-diamine]
Second: COc1cc(S(C)(=O)=O)ccc1Nc1nc(NC2CCOCC2)c2c(Cl)c[nH]c2n1 [Compound 63, 5-chloro-N2-(2-methoxy-4-(methylsulfonyl)phenyl)-N4-(tetrahydro-2H-pyran-4-yl)-7H-pyrrolo[2,3-d]pyrimidine-2,4-diamine]
The pIC50 of the first is lower: < 6.00 for the first, 7.00 to 8.00 for the second.

First: COc1cc(S(=O)(=O)N2CCOCC2)ccc1Nc1nc(N[C@H]2CCOC2)c2c(Cl)c[nH]c2n1 [Compound 60, (S)-5-chloro-N2-(2-methoxy-4-(morpholinosulfonyl)phenyl)-N4-(tetrahydrofuran-3-yl)-7H-pyrrolo[2,3-d]pyrimidine-2,4-diamine]
Second: COc1cc(S(=O)(=O)N2CCC(N3CCOCC3)CC2)ccc1Nc1nc(N[C@H]2CCOC2)c2c(Cl)c[nH]c2n1 [Compound 61, (S)-5-chloro-N2-(2-methoxy-4-((4-morpholinopiperidin-1-yl)sulfonyl)phenyl)-N4-(tetrahydrofuran-3-yl)-7H-pyrrolo[2,3-d]pyrimidine-2,4-diamine]
The pIC50 of the first is higher: 6.00 to 7.00 for the first, < 6.00 for the second. The first is the more potent here.

Compared with COc1cc(S(C)(=O)=O)ccc1Nc1nc(NCC2CC2)c2c(Cl)c[nH]c2n1 [Compound 64, 5-chloro-N4-(cyclopropylmethyl)-N2-(2-methoxy-4-(methylsulfonyl)phenyl)-7H-pyrrolo[2,3-d]pyrimidine-2,4-diamine], COc1cc(S(C)(=O)=O)ccc1Nc1nc(NCC2CCC2)c2c(Cl)c[nH]c2n1 [Compound 66, 5-chloro-N4-(cyclobutylmethyl)-N2-(2-methoxy-4-(methylsulfonyl)phenyl)-7H-pyrrolo[2,3-d]pyrimidine-2,4-diamine] is lower in pIC50: 6.00 to 7.00 for the first, < 6.00 for the second. The first is the more potent here.

Compared with COc1cc(S(=O)(=O)N2CCC(N3CCOCC3)CC2)ccc1Nc1nc(NCC2CCCC2)c2c(Cl)c[nH]c2n1 [Compound 67, 5-chloro-N4-(cyclopentylmethyl)-N2-(2-methoxy-4-((4-morpholinopiperidin-1-yl)sulfonyl)phenyl)-7H-pyrrolo[2,3-d]pyrimidine-2,4-diamine], COc1cc(S(=O)(=O)N2CCC(N3CCOCC3)CC2)ccc1Nc1nc(NCCS(C)(=O)=O)c2c(Cl)c[nH]c2n1 [Compound 69, 5-chloro-N2-(2-methoxy-4-((4-morpholinopiperidin-1-yl)sulfonyl)phenyl)-N4-(2-(methylsulfonyl)ethyl)-7H-pyrrolo[2,3-d]pyrimidine-2,4-diamine] is higher in pIC50: 6.00 to 7.00 for the first, > 8.00 for the second. The second is the more potent here.

First: COc1cc(S(=O)(=O)N2CCOCC2)ccc1Nc1nc(NCCS(C)(=O)=O)c2c(Cl)c[nH]c2n1 [Compound 68, 5-chloro-N2-(2-methoxy-4-(morpholinosulfonyl)phenyl)-N4-(2-(methylsulfonyl)ethyl)-7H-pyrrolo[2,3-d]pyrimidine-2,4-diamine]
Second: CCCCNc1nc(Nc2ccc(S(=O)(=O)N3CCOCC3)cc2OC)nc2[nH]cc(Cl)c12 [Compound 71, N4-butyl-5-chloro-N2-(2-methoxy-4-(morpholinosulfonyl)phenyl)-7H-pyrrolo[2,3-d]pyrimidine-2,4-diamine]
The pIC50 of the first is higher: > 8.00 for the first, 6.00 to 7.00 for the second.

In the case of CS(=O)(=O)CCNc1nc(Nc2ccc(C(=O)N3CCOCC3)c3c2OCCO3)nc2[nH]cc(Cl)c12 [Compound 70, (8-((5-chloro-4-((2-(methylsulfonyl)ethyl)amino)-7H-pyrrolo[2,3-d]pyrimidin-2-yl)amino)-2,3-dihydrobenzo[b][1,4]dioxin-5-yl)(morpholino)methanone], the pIC50 was > 8.00.
